# From the supplement of paper PMC11369174, “Proteome-scale characterisation of motif-based interactome rewiring by disease mutations” (Molecular Systems Biology, 2024)
# The list shows a part of the results. Values come from read counts of a selection and are noisy.
# T1: CSK21_Pkinase__P68400_1_335
# T1 chain: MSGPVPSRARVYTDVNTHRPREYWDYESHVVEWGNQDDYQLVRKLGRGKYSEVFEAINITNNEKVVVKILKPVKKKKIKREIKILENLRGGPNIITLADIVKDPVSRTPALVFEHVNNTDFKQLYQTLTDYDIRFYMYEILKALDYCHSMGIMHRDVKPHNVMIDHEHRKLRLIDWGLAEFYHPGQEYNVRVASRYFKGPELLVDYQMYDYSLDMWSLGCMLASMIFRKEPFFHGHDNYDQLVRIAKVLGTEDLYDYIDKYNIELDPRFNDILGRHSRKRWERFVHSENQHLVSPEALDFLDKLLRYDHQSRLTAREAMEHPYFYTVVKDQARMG
# T2: CLTC_Clathrin-propeller__Q00610_1_364
# T2 chain: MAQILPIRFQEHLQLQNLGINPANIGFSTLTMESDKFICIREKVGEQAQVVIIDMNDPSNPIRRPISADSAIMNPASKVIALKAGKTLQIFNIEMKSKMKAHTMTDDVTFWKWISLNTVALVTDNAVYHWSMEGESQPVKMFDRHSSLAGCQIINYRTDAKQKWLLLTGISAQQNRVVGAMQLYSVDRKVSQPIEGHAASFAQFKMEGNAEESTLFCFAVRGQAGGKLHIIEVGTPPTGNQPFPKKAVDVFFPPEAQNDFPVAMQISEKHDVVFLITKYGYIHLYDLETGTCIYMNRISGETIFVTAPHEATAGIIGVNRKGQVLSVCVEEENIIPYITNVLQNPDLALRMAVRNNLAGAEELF
# T3: EPHB2_Pkinase__P29323_604_898
# T3 chain: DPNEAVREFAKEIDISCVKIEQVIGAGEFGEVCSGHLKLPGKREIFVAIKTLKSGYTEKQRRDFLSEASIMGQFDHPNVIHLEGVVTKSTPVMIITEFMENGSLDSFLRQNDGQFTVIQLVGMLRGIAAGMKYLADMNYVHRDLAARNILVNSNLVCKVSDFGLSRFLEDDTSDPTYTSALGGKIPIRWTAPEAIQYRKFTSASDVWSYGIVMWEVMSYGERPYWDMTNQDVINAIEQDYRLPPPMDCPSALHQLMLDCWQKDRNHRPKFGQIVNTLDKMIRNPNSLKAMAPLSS
# T4: EPHA3_Pkinase__P29320_606_947
# T4 chain: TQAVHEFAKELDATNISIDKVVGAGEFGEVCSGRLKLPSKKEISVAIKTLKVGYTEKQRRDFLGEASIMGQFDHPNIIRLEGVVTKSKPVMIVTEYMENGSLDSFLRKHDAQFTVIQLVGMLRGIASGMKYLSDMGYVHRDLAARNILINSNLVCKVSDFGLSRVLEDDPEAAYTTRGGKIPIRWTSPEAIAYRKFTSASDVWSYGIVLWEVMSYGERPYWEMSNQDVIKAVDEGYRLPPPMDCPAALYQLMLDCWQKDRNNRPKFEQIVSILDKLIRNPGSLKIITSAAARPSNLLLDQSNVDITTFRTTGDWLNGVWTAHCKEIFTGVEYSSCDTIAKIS
# T5: DOK1_PTB__Q99704_151_256
# T5 chain: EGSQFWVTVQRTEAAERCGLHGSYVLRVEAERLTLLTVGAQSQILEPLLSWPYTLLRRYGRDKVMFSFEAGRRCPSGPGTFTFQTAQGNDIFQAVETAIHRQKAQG
# B1: PEX1 964-979 wt (peptide)
# chain: LLTQLDGVEGLQGVYV
# B2: LDLRAP1 207-222 mut Q5SW96.T218I (peptide)
# chain: VATGNLLDLEEIAKAP
# B3: ROM1 287-302 mut Q03395.R287W (peptide)
# chain: WYLQTALEGLGGVIDA
# B4: UNC13D 76-91 mut Q70J99.T76M (peptide)
# chain: MEASELLRYLQEAFHV
# B5: TP63 535-550 mut Q9H3D4.I549T (peptide)
# chain: SHATPPPPYPTDASTV
# B6: LDLRAP1 211-226 wt (peptide)
# chain: NLLDLEETAKAPLSTV
# B7: NPC1 719-734 mut O15118.S734I (peptide)
# chain: TLDQQLGRVLGEVAPI
# B8: EP300 2069-2084 wt (peptide)
# chain: QVLSILHANPQLLAAF
# B9: TYR 185-200 mut P14679.D199N (peptide)
# chain: MDALLGGSEIWRDINF
# B10: UNC13D 76-91 wt (peptide)
# chain: TEASELLRYLQEAFHV
# B11: BRCA2 2362-2377 mut P51587.N2374S (peptide)
# chain: LYEHLTLEKSSSSLAV
# B12: RUNX2 414-429 mut Q13950.T420N (peptide)
# chain: ATTHYHNYLPPPYPGS
# B13: SCN3A 1951-1966 mut Q15858.D1959A (peptide)
# chain: STTSPPSYASVTKPDK
# B14: GATA4 427-442 mut P43694.A442V (peptide)
# chain: WNSLVLADSHGDIITV
# B15: CAPN3 279-294 mut P20807.R289W (peptide)
# chain: SGLNMGELIAWMVRNM
# B16: RUNX2 418-433 mut Q13950.T420N (peptide)
# chain: YHNYLPPPYPGSSQSQ
# B17: TP63 535-550 wt (peptide)
# chain: SHATPPPPYPTDASIV
# B18: SCN9A 1947-1962 mut Q15858.D1959A (peptide)
# chain: DATSSTTSPPSYASVT
# B19: KMT2A 2845-2860 mut Q03164.L2854Q (peptide)
# chain: LPSDIMDFVQKNTPSM
# B20: KRT1 335-350 mut P04264.D340V (peptide)
# chain: VILSMVNNRSLDLDSI
# B21: RUNX2 414-429 wt (peptide)
# chain: ATTHYHTYLPPPYPGS
# B22: KNSTRN 16-31 wt (peptide)
# chain: TWLSTEADSHPLPPSY
# B23: KIT 557-572 mut P10721.V559D (peptide)
# chain: WKDVEEINGNNYVYID
# B24: CSRP3 36-51 mut P50461.S46R (peptide)
# chain: HAMAARKALDRTTVAA
# B25: LDLR 1-16 mut P01130.L16P (peptide)
# chain: MGPWGWKLRWTVALLP
# Assays:
# Assay in all cases: mean normalised NGS count of phage-displayed peptide after selection on bait (% of reads); baits are purified protein domains named by gene / domain / UniProt id / residues; peptides come from disordered regions of human proteins; higher = stronger enrichment / binding
# [1] = biological target: T1, CSK21_Pkinase__P68400_1_335
# [2] = biological target: MK08_Pkinase__P45983_1_363
# [3] = biological target: T2, CLTC_Clathrin-propeller__Q00610_1_364; settings: replicate selections in which the peptide was seen: 6
# [4] = biological target: T3, EPHB2_Pkinase__P29323_604_898; settings: replicate selections in which the peptide was seen: 3
# [5] = biological target: CREBBP_KIX__Q92793_587_673
# [6] = biological target: CREBBP_NCBD__Q92793_2062_2109
# [7] = biological target: DMD_WW-EF__P11532_3055_3088
# [8] = biological target: T4, EPHA3_Pkinase__P29320_606_947
# [9] = biological target: T5, DOK1_PTB__Q99704_151_256
# [10] = biological target: MDM2_p53-binding-domain__Q00987_17_125; settings: replicate selections in which the peptide was seen: 2
# [11] = replicate selections in which the peptide was seen: 3
# [12] = replicate selections in which the peptide was seen: 4
# [13] = replicate selections in which the peptide was seen: 2
# [14] = replicate selections in which the peptide was seen: 6
# [15] = replicate selections in which the peptide was seen: 5
# Chain of MK08_Pkinase__P45983_1_363 (chain, as listed by the source): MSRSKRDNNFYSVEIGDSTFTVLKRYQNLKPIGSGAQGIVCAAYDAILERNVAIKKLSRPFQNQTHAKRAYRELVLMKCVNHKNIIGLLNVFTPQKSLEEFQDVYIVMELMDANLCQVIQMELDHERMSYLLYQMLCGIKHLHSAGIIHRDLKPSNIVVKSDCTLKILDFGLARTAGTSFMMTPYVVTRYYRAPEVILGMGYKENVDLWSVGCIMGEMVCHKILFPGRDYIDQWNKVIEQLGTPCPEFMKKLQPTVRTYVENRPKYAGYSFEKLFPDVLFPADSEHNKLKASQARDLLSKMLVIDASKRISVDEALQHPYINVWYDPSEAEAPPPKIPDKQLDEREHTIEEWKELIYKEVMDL
binder,measurement,setting,value
B1,mean normalised NGS count,[1]; [11],0.226
same,mean normalised NGS count,[2]; [12],0.152
B2,mean normalised NGS count,[3],0.0189
B3,mean normalised NGS count,[1]; [13],0.317
same,mean normalised NGS count,[4],0.204
B4,mean normalised NGS count,[5]; [14],68.7
same,mean normalised NGS count,[6]; [15],91.8
B5,mean normalised NGS count,[7]; [12],11.7
B6,mean normalised NGS count,[3],0.0228
B7,mean normalised NGS count,[1]; [11],0.174
B8,mean normalised NGS count,[1]; [12],4.79
same,mean normalised NGS count,[8]; [11],2.11
same,mean normalised NGS count,[4],0.632
same,mean normalised NGS count,[2]; [11],0.0706
B9,mean normalised NGS count,[9]; [15],0.464
B10,mean normalised NGS count,[6]; [15],1.46
same,mean normalised NGS count,[10],4.41
B11,mean normalised NGS count,[1]; [12],0.191
B12,mean normalised NGS count,[7]; [12],5.55
B13,mean normalised NGS count,[7]; [15],3.1
B14,mean normalised NGS count,[1]; [12],6.23
same,mean normalised NGS count,[8]; [12],5.78
same,mean normalised NGS count,[4],0.399
B15,mean normalised NGS count,[6]; [11],2.16
B16,mean normalised NGS count,[7]; [11],0.0551
B17,mean normalised NGS count,[7]; [14],10.9
B18,mean normalised NGS count,[7]; [14],17.7
B19,mean normalised NGS count,[5]; [12],0.48
B20,mean normalised NGS count,[1]; [11],0.478
same,mean normalised NGS count,[2]; [13],0.0913
B21,mean normalised NGS count,[7]; [12],0.131
B22,mean normalised NGS count,[7]; [12],0.286
B23,mean normalised NGS count,[9]; [12],0.224
B24,mean normalised NGS count,[9]; [13],3.06
B25,mean normalised NGS count,[1]; [12],0.0371
